Laboratory results: the RNAGym collection of RNA variant scans (doi:10.7554/elife.90254)
The source gives no read counts; variants with many changes may rest on few reads.

B1: LINE1-mini (parent)
chain: GGCAGAGCUCAACACAGCGUGGCAAAGUGGCUGUGGCUAGACUGCC

Variants of: B1
Experiment: self-cleavage, relative activity (ratio to wild type); higher = more cleavage; in vitro, sequencing; the parent is a self-cleaving ribozyme

Variant | self-cleavage
GGCAUAGCUCAACACAUCGUGGCAAAGUGGCUGUGUCUAGACUGCC [G5U G17U G36U] | 0.05
GGCAGCGCUCAACACCGCGUGGCAAAGUGGCUGUGCCUAGACUGCC [A6C A16C G36C] | 0
GGCAGCGCUCUAAACAGCGUGACAAAGUGGCUGUGGCUAGACUGCC [A6C A11U C13A G22A] | 0.03
GGCAUAGCUCAACACAGCGUGGCAAAGUGGCUGUGUCUAGACUGCA [G5U G36U C46A] | 0.07
GGCAUAGCUCAACACAGCGUGGCAAAGUGGCUGUGUCUAGACUGCU [G5U G36U C46U] | 0.02
GGCAGCGCUCAGCACACCGUGGCAAAGUGGCUGUGGCUAGACUGCC [A6C A12G G17C] | 0.02
GGCAUAGCUCAACACAGCGUGGCAAAGUGUUUGUGGCUAGACUGCC [G5U G30U C31U] | 0.08
GGCAUAGCUCAACACAACGUUGCAAAGUGGCUGUGGCUAGACUGCC [G5U G17A G21U] | 0.19
GGCAUAGCUCAACACAGCGUGGCAAAGUGCGUGUGGCUAGACUGCC [G5U G30C C31G] | 0.05
GGCAUAGCACAACACAGAGUGGCAAAGUGGCUGUGGCUAGCAUGCC [G5U U9A C18A A41C C42A] | 0.16
GGCAGCGCUCAACUCAGCGUGGCAAAGUGGCUGUUGCUAGACUGCU [A6C A14U G35U C46U] | 0.02
GGCAUAGCCCAACACAGCGUCGCAAAGUGGCUGUGGCUAGACUACC [G5U U9C G21C G44A] | 0.05
GGCAUAGCUCAACACAGCGUGGCAAAGUGGCUGUUGCUAGACAGCC [G5U G35U U43A] | 0.01
GGCAGCGCUCAACACGGAGUGUAAAAGUGGCUGUCGCUAGAGUGCC [A6C A16G C18A G22U C23A G35C C42G] | 0
GGCAUAGCUCAACACAGCGUGGCAAAGUGACUGUGGCUAGACUGGC [G5U G30A C45G] | 0.08
GGCAGCGCUCAACCCAGCCUGGCAAUGUGGCUGUGGCUAGACUGCC [A6C A14C G19C A26U] | 0.02
GGCAUAGCUCAACACAGCGUGGCAAACUGGCUGAGGCUAGACUACC [G5U G27C U34A G44A] | 0.06
GGCAGCGCUCAUCACAGCGUGGCAAAGCGGCUGUGGCUAGACUGCC [A6C A12U U28C] | 0.13
GGCAUAGCUCAACACAGCGUGGCAAAUUGGCUGUGGCUAGACUUCC [G5U G27U G44U] | 0.06

Variant | self-cleavage
GGCAUAGCUCAACACAUCGUGGCAAAGACGCUGUGGCUAGACUGCC [G5U G17U U28A G29C] | 0.02
GGCAGCGCUCUAUACUGCGUGACAAAGUGGCUGUGGCCAGAAUGCC [A6C A11U C13U A16U G22A U38C C42A] | 0.02
GGCAUAGCCCAACACAGCGUGGCAUAGUGGCUGUGGCUAGACUGCC [G5U U9C A25U] | 0.01
GGCAGCGCUCAGCACAGCGUGGUAAAGUGGCUUUGGCUAGACUGCC [A6C A12G C23U G33U] | 0.03
GGCAUAGCUCAACACAGCGGGGCAAAGUGGCUGUGGAUAGACUGCC [G5U U20G C37A] | 0.01
GGCAGCGCUCAACACUGCGAGGCAAAGUGUCUGCGGCUAGACUGCC [A6C A16U U20A G30U U34C] | 0.24
GGCAGCGCUCAACCCAGCUUCGCAAAGUGGCUGUGGCUGGACGGCC [A6C A14C G19U G21C A39G U43G] | 0.11
GGCAUAGCUCAACACAGCGUGGCAAAGUGGCGGUGGCUAGUCUGCC [G5U U32G A41U] | 0
GGCAUAGCGCACCACAGCGUGGCAAAGUGGCUGUGGCUAGAGCGCC [G5U U9G A12C C42G U43C] | 0.01
GGCAUAGCACAACACAGCGUUGCAAAGUGGCUGUGGCUCGACUGCC [G5U U9A G21U A39C] | 0.14
GGCAUAGCGCACGGCAGCGUCGCAAAGUGGCUGUGGCUAGACUGCC [G5U U9G A12C C13G A14G G21C] | 0.02
GGCAUAGCUCAACACAGCGCGGCAAAGUGGCUGUGGCUAGACUGCG [G5U U20C C46G] | 0.04
GGCAGCGCUCAUCACAGCGUGGCAAAGUGGCUGAGGCUAGACUGGC [A6C A12U U34A C45G] | 0
GGCAUAGCUCAACACAGCUUGGCCAAGUGGCUGUGGCUAGACUUCC [G5U G19U A24C G44U] | 0.03
GGCAGCGCUCAACGCGGCGCGGCAAAGUGGCUGUGGCUUAACUGCC [A6C A14G A16G U20C A39U G40A] | 0
GGCAUAGCUCAACACAGCGUGGCAAAGUAAAUGUGGCUAGACUGCC [G5U G29A G30A C31A] | 0.06
GGCAUAGCCGAACACAGCGUCGCAAAGUGGCUGUGGCUAGACUGCC [G5U U9C C10G G21C] | 0
GGCAUAGCUCAACACAGCGUAGCAAAGUGGAUGUGGCUAGACUGCC [G5U G21A C31A] | 0.18
GGCAUAGCUCAACACAGCGUGGCAAAGUGGCUGUAGCUUGACUGCC [G5U G35A A39U] | 0.1

Variant | self-cleavage
GGCAUAGCUCAACACAGCGUGGCAAAUUGGCUGUGGCUAGACUGCA [G5U G27U C46A] | 0.22
GGCAUAGCUCAACACAGCGUGGCAAAGUGGCUGUGUCUAGUCUGCC [G5U G36U A41U] | 0.03
GGCAGCGCUCUACACAGCGUGGCAAGGUGGCUGUGGCUAGACUGCC [A6C A11U A26G] | 0.04
GGCAUAGCGCAACUUAGCGUGGCAAAGUGGCUGUGGCUAAACUGCC [G5U U9G A14U C15U G40A] | 0
GGCAUAGCUCAACACAGCGUGGCAAAGUGGCUGUCGGUAGACUGCC [G5U G35C C37G] | 0.04
GGCAUAGCUCAACACAGCGUGGCAAAGUGGCUGUGCCUUGACUGCC [G5U G36C A39U] | 0.05
GGCAUAGCUCAACACAGCGUGGCAAAGUGGCUGUGACUAUACUGUC [G5U G36A G40U C45U] | 0.04
GGCAGCGCUCAACACGGUGUGGCAAAGUAGAUGUGGCUAGACUGCC [A6C A16G C18U G29A C31A] | 0
GGCAGCGCUCAACCCAGCGUGGCAAAGUGGCUAUGGCUAGACUGCC [A6C A14C G33A] | 0.01
GGCAUAGCACAACACAGCGUGGCAAAGUGGCUGUUGCUAGACUGCC [G5U U9A G35U] | 0.44
GGCAUAGCACAACAUGGCGUGGUAAAGUGGCUUUGGCUAGACUGCC [G5U U9A C15U A16G C23U G33U] | 0.19
GGCAUAGCGCAACAUAGCGUUGCAAAGUGGCUGUGGCUAGACUGCC [G5U U9G C15U G21U] | 0.01
GGCAUAGCUCAACACAGCGUGGCAAAAUGGCUGUGGCUAGCAUGCC [G5U G27A A41C C42A] | 0
GGCAUAGCUCAACACAGCGUGGCAAAGAGUCUGUGGCUAGACUGCC [G5U U28A G30U] | 0.05
GGCAUAGCGCAACACAGCGUGGCAAAGCGGCUGUGGCUAGACUGCC [G5U U9G U28C] | 0.04
GGCAUAGCUCAACACAGCGUGGCAAAAUCGCUGUGGCAAGACUGCC [G5U G27A G29C U38A] | 0.01
GGCAGCGCUCAACACCCCGUGUCAAAGUGGCUGUGGCUAGACUACC [A6C A16C G17C G22U G44A] | 0.03
GGCAUAGCUCAACACAGCGUGGCAAAGUGGCUGUGGCGAGACUGCU [G5U U38G C46U] | 0.02
